The test system of this assay is L1210 leukemia ip in BDF1 mice, survival T/C. Description: NCI In Vivo Anticancer Drug Screen. Data for tumor model L1210 Leukemia (intraperitoneal) in B6D2F1 (BDF1) mice. To be noted: endpoint: mean survival time, higher = longer survival.

T/C data for two molecules are collected here from PubChem BioAssay AID248 (DTP/NCI, 2004).

Toxic doses and inconclusive results are not listed. For part of its entries the source gives two or more results. This list holds those alone. There may be further records. The values listed for one entry differ for a reason that is not stated; dose, time, organism, isomer or construct need not be as stated for each record.

Consider `COC(=O)c1cn2c(c1C(=O)OC)CCC2`, for which the T/C (dose: 200.0 mg/kg/injection, schedule: Q01DX009 (ip), vehicle: other) is given as 93 % of control, 108 % of control, 459 % of control.

With `COCCOC1=C(N2CC2)C(=O)C(OCCOC)=C(N2CC2)C1=O`, the T/C (dose: 12.5 mg/kg/injection, schedule: Q01DX001 (ip), vehicle: saline) is 122 % of control and 151 % of control.
